# Test results reported in PubChem BioAssay AID1240 (Sanford-Burnham Center for Chemical Genomics, 2008).
# The campaign covered roughly 50,000 compounds. About 800 (1.6%) showed an effect of 50% or more. This is one part of the list.
# Target: Bcl-2-like protein 10 (Homo sapiens) (UniProt Q9HD36)
# Assay: Phenotype converters, Bcl-B/TR3 peptide binding displacement, primary biochemical FP (AID 1240);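 note: 0% = Bcl-B with tracer peptide and DMSO and 100% = tracer peptide lacking Bcl-B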
# Conditions: GST-Bcl-B / FITC-TR3 peptide fluorescence polarization; stronger effect = higher value; compound at 3.75 mg/L
# Chain of UniProt Q9HD36 (Q9HD36 whole entry, looked up): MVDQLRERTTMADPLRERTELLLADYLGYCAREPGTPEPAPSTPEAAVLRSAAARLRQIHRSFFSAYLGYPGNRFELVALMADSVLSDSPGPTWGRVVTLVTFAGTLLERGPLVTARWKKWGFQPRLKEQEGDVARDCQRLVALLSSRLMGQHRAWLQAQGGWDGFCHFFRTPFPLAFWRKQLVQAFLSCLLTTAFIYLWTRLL
row,SMILES,displacement
1,Cc1ccc(Cl)c(OCCN2CCOCC2)c1,-2.6%
2,Cc1ccc(NC(=O)c2ccc(Br)o2)cc1Cl,22.6%
3,O=S(=O)(NCCOCc1ccccc1)c1ccccc1,-2.3%
4,CCc1ccc(-c2nc(-c3ccccn3)no2)cc1,-3.8%
5,Clc1ccccc1CSc1nc2ncccc2[nH]1,5.1%
6,O=C(N1CCSCC1)C(F)(F)C(F)(F)C(F)(F)C(F)(F)F,1%
7,C/C(=N\N)C1(O)CCC2C3CCC4=C/C(=N\N)CCC4(C)C3CCC21C (stereo unspecified),-9.4%
8,Cc1cc2c(cc1C)NC(CC(=O)Nc1ccc(Br)cc1)C(=O)N2 (stereo unspecified),-21.4%
9,Cc1cc(C(C)(C)C)cc(C(C)(C)C)c1NC(=O)Cc1ccccc1,9.8%
10,Nc1ccc2oc(-c3cccc(Br)c3)nc2c1,-6.3%
11,Cc1ccc(C2=NN(C(=N)SC3CC(=O)N(c4ccc(C(=O)O)cc4)C3=O)C(c3ccc(Br)cc3)C2)cc1 (stereo unspecified),3%
12,COc1ccccc1C(=O)Nc1ccc(C(=O)OC2CCCCC2)cc1,-3.8%
13,CCC(=O)N1N=C(C)CC1(O)c1ccccc1 (stereo unspecified),-1.9%
14,O=C(/C=C\Nc1ccccc1NS(=O)(=O)c1ccccc1)c1ccc(F)cc1,10.4%
15,O=C(O)c1cc2cc(OCc3ccccc3)c(OCc3ccccc3)cc2o1,11.4%
16,COc1cccc2cc(C(N)=O)c(=O)oc12,-0.3%
17,CCSc1nc(O)c(Cc2ccccc2)c(=O)n1-c1ccc(C)cc1,6.8%
18,Cc1cc(Cl)ccc1OCC(=O)Nc1ccc(Br)cn1,3%
19,Cc1ccc(NC(=O)c2c(NC(=O)c3ccc(C)cc3)sc3c2CCC3)cc1,-8.7%
20,COc1ccc(/C=C/C(=O)NC(=S)Nc2ccc(C(C)=O)cc2)cc1OC,10.6%
21,O=C(NC(=S)Nc1ccc(-c2nc3ccccc3s2)cc1)c1ccc(Cl)cc1,1.7%
22,CN(C)CCC#CC1(O)c2ccccc2-c2ccccc21,9.9%

row,SMILES,displacement
1,O=C(Nc1ccc(Cl)cc1C(F)(F)F)c1ccc(I)cc1,0%
2,COc1ccc(-c2n[nH]c(=S)n2N)cc1OC,-27.2%
3,CCC1=NN(C(=O)c2cccc(OC)c2)C(O)(c2ccc(Br)cc2)C1 (stereo unspecified),-9.3%
4,S=c1[nH]nc(-c2ccccc2)n1/N=C/c1ccc2c(c1)OCO2,0.6%
5,CCOc1ccccc1NC(=O)c1ccc(CN2CCOCC2)cc1,4.5%
6,CCOC(=O)CNS(=O)(=O)c1c(C)cc(C)cc1C,-14%
7,O=C(C(c1ccccc1)c1ccccc1)N1CCN(c2ccc([N+](=O)[O-])cc2)CC1,0.3%
8,CC1=CC(=O)N(c2ccc([N+](=O)[O-])cc2)C1=O,-2.5%
9,O=C(O/N=C(/c1ccncc1)c1ccc([N+](=O)[O-])cc1)c1ccc(Cl)cc1Cl,1.9%
10,O=C(CSc1ccccn1)Nc1ccc2c(c1)C(=O)c1ccccc1C2=O,54.6%
11,COc1ccc(NC(=O)C(=O)N/N=C/c2ccc(O)c(OC)c2)cc1,0.8%
12,O=C1NC(=S)NC(=O)C1=Cc1ccc(-c2ccccc2C(=O)O)o1,16.1%
13,C=CCC1(O)C(C)C(c2ccccc2)NC(c2ccccc2)C1CCC (stereo unspecified),10.3%
14,O=C(NCc1ccccc1)C1CC(=O)N(c2ccc(Cl)cc2)C1 (stereo unspecified),10.4%
15,O=C(Nc1ccc(N2CCOCC2)cc1)c1sc2ccccc2c1Cl,-5.6%
16,CCOC(=O)c1ccccc1NC(=O)CN(c1ccccc1)S(=O)(=O)c1ccccc1[N+](=O)[O-],-8.3%
17,CC(C)Oc1ccc(/C=C(/NC(=O)c2ccccc2)C(=O)NCCCO)cc1,4.3%
18,Cc1nc2ccccc2n1/N=C/c1ccccc1,-2.2%
19,COC(=O)c1c(NC(=O)c2ccc(Cl)cc2Cl)sc(Cc2ccccc2)c1C,9.2%
20,Cc1ccc(-c2nc3ccccc3o2)cc1NC(=O)C(Cl)(Cl)Cl,5.3%
21,CC(C)NC(=O)c1cccc([N+](=O)[O-])c1,-3.6%
22,CCc1ccc(S(=O)(=O)N=Nc2c(O)[nH]c3ccccc23)cc1,6.1%

row,SMILES,displacement
1,CC(=O)N1c2ccccc2NC2=C(C(=O)CC(c3ccccc3)C2)C1c1cccnc1 (stereo unspecified),-18.2%
2,CCC1(C)CC(CCNCc2ccc(N(C)C)cc2)(c2ccccc2OC)CCO1 (stereo unspecified),2.2%
3,CC(=O)C12c3ccccc3C(c3ccccc31)C1C(=O)NC(=O)C12 (stereo unspecified),13.7%
4,CCOc1ccc(CN2CCN(C(=O)c3ccc(-c4ccccc4)cc3)CC2)cc1,8.5%
5,CC(=O)N/N=C/c1cc(C)n(-c2ccc(Cl)c(Cl)c2)c1C,-6.4%
6,Cc1cc(C)nc(/N=C(/N)Nc2ccc(-c3ccccc3)cc2)n1,-16.3%
7,CCOc1ccc(/C=C2/C(=O)N(c3ccccc3)N=C2C)c(OCC)c1,0.4%
8,CN1CCN(c2nc3ccccn3c(=O)c2/C=C2\SC(=S)N(CCc3ccccc3)C2=O)CC1,14.9%
9,COc1cc(/C=C2\C(=O)NC(=O)N(c3ccc(C)cc3)C2=O)ccc1OCc1ccc([N+](=O)[O-])cc1,70%
10,O=C(c1ccc([N+](=O)[O-])cc1)N1CCN(C2CCN(Cc3ccccc3)CC2)CC1,-8.3%
11,CCOC(=O)CSC1=C(C#N)C(c2ccc(Br)cc2)CC(=O)N1 (stereo unspecified),-9.6%
12,CCN(CC)c1ccc(C2C(C(=O)OC(C)C)C(=O)CC(C)(O)C2C(=O)OC(C)C)cc1 (stereo unspecified),-7.5%
13,O=C(ON1C(=O)c2ccccc2C1=O)c1ccccc1[N+](=O)[O-],15%
14,O=C(Nc1ccc(NC(=O)c2ccc(Cl)c(S(=O)(=O)N3CCOCC3)c2)cc1)c1ccccc1,-5.2%
15,CCOC(=O)c1c(C)nc(-c2ccccc2)nc1NC(=O)C(C)C,-19.4%
16,CN(C)c1ccc(C(=O)NCc2ccc(S(N)(=O)=O)cc2)cc1,21.7%
17,COc1ccc(C2/C(=C(\O)c3ccccc3)C(=O)C(=O)N2CCN(C)C)c(OC)c1 (stereo unspecified),1.7%
18,COc1ccc(CCNC(=O)CSc2nnc(-c3ccco3)n2-c2ccccc2)cc1OC,-10.4%
19,CCOc1ccc(N(CC(=O)NCCSCc2ccc(Cl)cc2)S(C)(=O)=O)cc1,-1.8%
20,O=C(NCc1ccco1)c1ccc(S(=O)(=O)N2CCOCC2)cc1,11.3%
21,Cc1ccccc1NC(=O)CCC(=O)N/N=C/c1ccncc1,-7.9%
22,COc1ccc2ccccc2c1/C=C1\SC(=S)N(c2ccccc2)C1=O,9%

row,SMILES,displacement
1,CCN(CC)c1ccc(NC(=O)C(C)Oc2ccc(Cl)cc2Cl)cc1 (stereo unspecified),8.6%
2,Cc1[nH][nH]c(=O)c1C(c1ccccc1Cl)C(C#N)C#N (stereo unspecified),-6%
3,CCc1nnc(NC(=O)CN2C(=O)/C(=C/c3cc(OC)c(OC)c(OC)c3)SC2=S)s1,-0.3%
4,O=C(CCCCCN1C(=O)c2ccccc2C1=O)Nc1ccc(F)c(Cl)c1,4.5%
5,CCNC(=O)c1ccc(Cl)cc1Cl,2%
6,CC1=CC(C)(C)N(C)C(=S)N1c1ccccc1,13.5%
7,CC(=O)Oc1ccc(-c2cccc(C(=O)Nc3cccc([N+](=O)[O-])c3)c2)cc1,4.5%
8,Cc1cc(C)c(NC(=O)CN2C(=O)c3ccccc3C2=O)c(C)c1,13.1%
9,O=c1nc(N(c2ccccc2)c2ccccc2)[nH]c(=O)[nH]1,0.8%
10,COC(=O)c1c(NC(=O)c2cc([N+](=O)[O-])cc([N+](=O)[O-])c2)c(C#N)c(C)n1-c1ccccc1,-3.4%
11,COc1ccc(N(CC(=O)NCCc2ccccc2)S(=O)(=O)c2ccc(C)cc2)cc1OC,3.6%
12,CCCCOC(=O)c1ccc(NC(=O)c2ccccc2OC)cc1,0.3%
13,O=[N+]([O-])c1cc(C(F)(F)F)ccc1N/N=C/c1ccc2c(c1)OCO2,12.2%
14,COc1ccc(OCC(=O)Nc2ccc(I)cc2Cl)cc1,8.4%
15,Cc1cccc(C2=N/C(=C\c3ccc(OS(=O)(=O)c4ccccc4)cc3)C(=O)O2)c1,-8.8%
16,O=C(CSc1ccccc1C(=O)O)Nc1ccccc1,8%
17,CCOC(=O)c1c(C)oc2ccc(OCC(=O)c3ccc(Br)cc3)cc12,15.7%
18,COc1cc(C(=O)Nc2c(C)cc(Br)cc2C)cc(OC)c1OC,9.6%
19,Cc1ccc(NCC(=O)N/N=C\c2cc(Cl)ccc2O)cc1,-10.2%
20,O=C1c2ccccc2C(=O)N1CCCCN(C(=O)c1ccccc1)c1ccc(F)cc1F,-11.5%
21,CC1=C(C(=O)Nc2ccc(Cl)cc2)C(c2cccc3ccccc23)NC(=S)N1 (stereo unspecified),0.7%
22,CCCCCCCCCCCCSC1=C(C#N)C2(CCN(C)CC2)C(C#N)C(=O)N1 (stereo unspecified),-1.3%

row,SMILES,displacement
1,COc1cccc(N=Cc2c(O)n(-c3cc(OC)ccc3OC)c(=O)[nH]c2=O)c1,-2%
2,O=C(NN1C(=O)/C(=C/c2ccc(O)c([N+](=O)[O-])c2)SC1=S)c1ccccc1Cl,-21.5%
3,Nc1csc(C(c2ccccc2)c2ccccc2)n1,-3%
4,COc1ccccc1N1CCN(C(=O)CN(c2ccc(Br)cc2)S(=O)(=O)c2ccccc2)CC1,-0.7%
5,CCOC(=O)C1=C(C)OC(N)=C(C(=O)OCC)C1c1ccccc1[N+](=O)[O-] (stereo unspecified),33.2%
6,CCOc1ccccc1NC(=O)Cc1ccccc1,10.5%
7,O=C1NC(=O)C(=Cc2ccc(OC(=O)c3cccc([N+](=O)[O-])c3)cc2)C(=O)N1,1.8%
8,COC(=O)C1=C(C)NC(C)=C(C(=O)OC)C1c1ccc(-c2cccc(Br)c2)o1,8.8%
9,O=C(N/N=C/c1ccc(Cl)cc1)C(=O)Nc1cccc(Cl)c1,7.1%
10,CCOC(=O)N1CCN(C(=O)CN2C(=O)c3ccccc3C2=O)CC1,-10%
11,O=c1c2c(nc3cc(-c4ccc(Cl)cc4)[nH]n13)CCC2,21.6%
12,Cc1ccc(NC(=O)c2cc3c(C)nn(-c4ccccc4)c3s2)cc1[N+](=O)[O-],-2.7%
13,O=C(N(c1cccc(C(F)(F)F)c1)C1C=CS(=O)(=O)C1)C(Cl)(Cl)Cl (stereo unspecified),16.6%
14,Cc1ccc(-c2noc(COc3ccccc3C)n2)cc1,-3.2%
15,c1ccc(-n2nnnc2SCc2cccc(CSc3nnnn3-c3ccccc3)n2)cc1,-8.8%
16,CCOC(=O)c1c(N2C(=O)C=CC2=O)sc2c1CCCC2,0.3%
17,CC1(C)CC(=O)C2=C(C1)N=C1c3ccccc3C(=O)C1C2c1cccc(Cl)c1 (stereo unspecified),3.9%
18,CCOC(=O)c1ccc(NC(=S)NC(NC(=O)CC(C)C)C(Cl)(Cl)Cl)cc1 (stereo unspecified),-3.4%
